Test results reported in the supplement of paper PMC10338343.
± gives the standard deviation. The list shows a part of the results, in another mix than the full data.

system: MIWI (PIWIL1) piRISC loaded with L1MC piRNA (30 nt); assay: pre-steady-state target cleavage rate (min^-1); MIWI and MILI are mouse PIWI proteins and EfPiwi is from a freshwater sponge; tags in brackets are library labels; higher = faster piRNA-guided slicing of the target; conditions: guide: L1MC piRNA 5'p-UAACUAAAUACUAUGCAAGCUGUAGGUCCU; auxiliary factor: 500 nM mouse GTSF1
Method in brief: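 A transcribed, DNA-blocked target RNA library […] was incubated at 33 °C for 0–8 or 0–960 min with 1 nM active affinity-purified piRISC carrying one synthetic guide, in HEPES–potassium acetate buffer with or without 500 nM GTSF1 partner protein. Uncleaved targets were then sequenced and normalised to depth and to weakly complementary targets. Data from three trials were pooled, with k3 capped at 0.0001 min^-1, and a burst-and-steady-state fit yielded the pre-steady-state cleavage rate.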
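Note: 1 nM active piRISC with 0.1 nM target library at 33 °C single turnover.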

| Sequence | pre-steady-state target cleavage rate |
| --- | --- |
| UCCUGCUAAAGCUUGCAUAGUAUUUAGUUA | 0.242 ± 0.041 |
| UCCUGGAUGUGCUUGCAUAGUUAUUAGUUA | 0.00955 ± 0.0048 |
| UCCUGGAUGAGCUUGCAUAGUAGUUUAGUUA | 0.102 ± 0.015 |
| UCCUCCAACUGCUUGCAUAGUAUUUAGUUA | 1.05 ± 0.044 |
| UCCUGCUUGAGCUUGCAUAGUAUUUAGUUA | 0.707 ± 0.051 |
| UCCUCCUACACGUUGCAUAGUAUUUAGUUA | 1.23 ± 0.042 |
| UCCUGGAUGUGCUUGCAUAGUAUUUGAGUUA | 0.157 ± 0.02 |
| UCCUGGAUGUGCUUGCAUACUAUUUAGUUA | 0.0877 ± 0.01 |
| AGGACCAACAGCUUGCAUAGAAUUUAGUUA | 0.519 ± 0.03 |
| UCCUGCUACAGCUUGGCAUAGUAUUUAGUUA | 0.62 ± 0.096 |
| UCCUGGAUCACCUUGCAUAGUAUUUUGUUA | 0.161 ± 0.025 |
| UCCUGGAUCACCUUGCAUAGUAUUAAGUUA | 0.227 ± 0.047 |
| UCCUGGUACAGCUUGCAUAGUAUUUACUAA | 0.0924 ± 0.023 |
| UCCUGGAACAGCUUGCAUAGUUUUUAGUAA | 0.191 ± 0.025 |
| UCCUGGAUCUGCUUGCAUAGUAUUAAGUUA | 0.275 ± 0.025 |
| UCCUGGAUGUCCUUGCAUAGUAUUUGAGUUA | 0.0326 ± 0.01 |
